Laboratory results reported in the supplement of paper PMC4967469.

Legend:
Test in all cases: Viability of human cancer cell lines after 72 h of drug (GDSC screen)
[1] = compound: C=CC(=O)Nc1cc(NC(=O)c2ccc(C)c(NC(=O)c3ccno3)c2)cc(C(F)(F)F)c1 [QL-XI-92]; conditions: top dose 10.24 µM; top dose inferred
Procedure: (§1)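 Human cancer cell lines in 384-well plates, medium with 10% serum, drug for 72 h over a 256-fold dose range (nine 2-fold or five 4-fold steps up to the top dose). Adherent lines were fixed and stained with the nucleic acid dye Syto60, suspension lines read with resazurin; signal relative to control wells, capped at 0 and 100%. One two-parameter sigmoid per drug and line, fitted in a mixed model over all curves with the slope shared within a line.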

[2] = compound: COc1cc2ncnc(Nc3ccc(F)c(Cl)c3)c2cc1OCCCN1CCOCC1 [Gefitinib]; conditions: top dose 0.5 µM
Procedure: as §1

[3] = compound: O=c1cc(CN2CCOCC2)occ1OCCCCCSc1ccnc2cc(C(F)(F)F)ccc12 [EHT 1864]; conditions: top dose 10 µM; top dose inferred
Procedure: as §1

[4] = compound: CNCc1ccc(-c2[nH]c3cc(F)cc4c3c2CCNC4=O)cc1 [AG-014699]; conditions: top dose 5 µM; top dose inferred
Procedure: as §1

[5] = compound: O=c1cc(N2CCOCC2)oc2c(-c3cccc4c3sc3ccccc34)cccc12 [NU-7441]; conditions: top dose 2 µM; top dose inferred
Procedure: as §1

[6] = compound: COc1cc2nccc(Oc3ccc(NC(=O)C4(C(=O)Nc5ccc(F)cc5)CC4)cc3)c2cc1OC [XL-184]; conditions: top dose 5.12 µM; top dose inferred
Procedure: as §1

[7] = compound: COc1cc2ncnc(Nc3cc(Br)c(O)c(Br)c3)c2cc1OC [WHI-P97]; conditions: top dose 10.24 µM; top dose inferred
Procedure: as §1

[8] = compound: N=C(N)NC(=N)NCCc1ccccc1 [Phenformin]; conditions: top dose 4000 µM; top dose inferred
Procedure: as §1

[9] = compound: CCC1=C[C@@H]2CN(C1)Cc1c([nH]c3ccccc13)[C@@](C(=O)OC)(c1cc3c(cc1OC)N(C)[C@H]1[C@@](O)(C(=O)OC)[C@H](OC(C)=O)[C@]4(CC)C=CCN5CC[C@]31[C@@H]54)C2 [Vinorelbine]; conditions: top dose 0.064 µM; top dose inferred
Procedure: as §1

Hs633T (fibrosarcoma, adherent)
AUC [1]: 0.984
IC50 [1]: > 10.2 µM
AUC [2]: 0.982
IC50 [2]: > 0.5 µM
AUC [3]: 0.985
IC50 [3]: > 10 µM
AUC [4]: 0.95
IC50 [4]: > 5 µM
AUC [5]: 0.916
IC50 [5]: > 2 µM
AUC [6]: 0.925
IC50 [6]: > 5.12 µM
AUC [7]: 0.969
IC50 [7]: > 10.2 µM
AUC [8]: 0.968
IC50 [8]: > 4000 µM
AUC [9]: 0.709
IC50 [9]: 0.0137 µM

Hs683 (glioma, adherent)
AUC [1]: 0.928
IC50 [1]: > 10.2 µM
AUC [2]: 0.988
IC50 [2]: > 0.5 µM
AUC [3]: 0.976
IC50 [3]: > 10 µM
AUC [4]: 0.977
IC50 [4]: > 5 µM
AUC [5]: 0.946
IC50 [5]: > 2 µM
AUC [6]: 0.948
IC50 [6]: > 5.12 µM
AUC [7]: 0.978
IC50 [7]: > 10.2 µM
AUC [8]: 0.853
IC50 [8]: 3170 µM
AUC [9]: 0.509
IC50 [9]: 0.00423 µM

Hs766T (pancreas, adherent)
AUC [1]: 0.98
IC50 [1]: > 10.2 µM
AUC [2]: 0.968
IC50 [2]: > 0.5 µM
AUC [3]: 0.923
IC50 [3]: > 10 µM
AUC [4]: 0.984
IC50 [4]: > 5 µM
AUC [5]: 0.929
IC50 [5]: > 2 µM
AUC [6]: 0.984
IC50 [6]: > 5.12 µM
AUC [7]: 0.984
IC50 [7]: > 10.2 µM
AUC [8]: 0.919
IC50 [8]: > 4000 µM
AUC [9]: 0.921
IC50 [9]: > 0.064 µM

Hs939-T (melanoma, adherent)
AUC [1]: 0.986
IC50 [1]: > 10.2 µM
AUC [2]: 0.986
IC50 [2]: > 0.5 µM
AUC [3]: 0.975
IC50 [3]: > 10 µM
AUC [4]: 0.977
IC50 [4]: > 5 µM
AUC [5]: 0.95
IC50 [5]: > 2 µM
AUC [6]: 0.977
IC50 [6]: > 5.12 µM
AUC [7]: 0.972
IC50 [7]: > 10.2 µM
AUC [8]: 0.751
IC50 [8]: 1420 µM
AUC [9]: 0.777
IC50 [9]: 0.0283 µM

Hs-578-T (breast, adherent)
AUC [1]: 0.987
IC50 [1]: > 10.2 µM
AUC [2]: 0.982
IC50 [2]: > 0.5 µM
AUC [3]: 0.959
IC50 [3]: > 10 µM
AUC [4]: 0.978
IC50 [4]: > 5 µM
AUC [5]: 0.949
IC50 [5]: > 2 µM
AUC [6]: 0.987
IC50 [6]: > 5.12 µM
AUC [7]: 0.987
IC50 [7]: > 10.2 µM
AUC [8]: 0.716
IC50 [8]: 1070 µM
AUC [9]: 0.98
IC50 [9]: > 0.064 µM

HuCCT1 (biliary tract, adherent)
AUC [1]: 0.88
IC50 [1]: > 10.2 µM
AUC [2]: 0.974
IC50 [2]: > 0.5 µM
AUC [3]: 0.956
IC50 [3]: > 10 µM
AUC [4]: 0.975
IC50 [4]: > 5 µM
AUC [5]: 0.963
IC50 [5]: > 2 µM
AUC [6]: 0.895
IC50 [6]: > 5.12 µM
AUC [7]: 0.929
IC50 [7]: > 10.2 µM
AUC [8]: 0.85
IC50 [8]: 3590 µM
AUC [9]: 0.486
IC50 [9]: 0.00366 µM

HuO9 (osteosarcoma, adherent)
AUC [1]: 0.888
IC50 [1]: > 10.2 µM
AUC [2]: 0.975
IC50 [2]: > 0.5 µM
AUC [3]: 0.939
IC50 [3]: > 10 µM
AUC [4]: 0.899
IC50 [4]: > 5 µM
AUC [5]: 0.901
IC50 [5]: > 2 µM
AUC [6]: 0.825
IC50 [6]: 3.53 µM
AUC [7]: 0.983
IC50 [7]: > 10.2 µM
AUC [8]: 0.179
IC50 [8]: 23.5 µM
AUC [9]: 0.581
IC50 [9]: 0.00682 µM

HuO-3N1 (osteosarcoma, adherent)
AUC [1]: 0.981
IC50 [1]: > 10.2 µM
AUC [2]: 0.869
IC50 [2]: > 0.5 µM
AUC [3]: 0.946
IC50 [3]: > 10 µM
AUC [4]: 0.865
IC50 [4]: > 5 µM
AUC [5]: 0.962
IC50 [5]: > 2 µM
AUC [6]: 0.952
IC50 [6]: > 5.12 µM
AUC [7]: 0.983
IC50 [7]: > 10.2 µM
AUC [8]: 0.87
IC50 [8]: > 4000 µM
AUC [9]: 0.692
IC50 [9]: 0.0166 µM

HuP-T3 (pancreas, adherent)
AUC [1]: 0.934
IC50 [1]: > 10.2 µM
AUC [2]: 0.975
IC50 [2]: > 0.5 µM
AUC [3]: 0.978
IC50 [3]: > 10 µM
AUC [4]: 0.977
IC50 [4]: > 5 µM
AUC [5]: 0.954
IC50 [5]: > 2 µM
AUC [6]: 0.897
IC50 [6]: > 5.12 µM
AUC [7]: 0.925
IC50 [7]: > 10.2 µM
AUC [8]: 0.68
IC50 [8]: 897 µM
AUC [9]: 0.917
IC50 [9]: > 0.064 µM

HuP-T4 (pancreas, adherent)
AUC [1]: 0.919
IC50 [1]: > 10.2 µM
AUC [2]: 0.938
IC50 [2]: > 0.5 µM
AUC [3]: 0.969
IC50 [3]: > 10 µM
AUC [4]: 0.959
IC50 [4]: > 5 µM
AUC [5]: 0.964
IC50 [5]: > 2 µM
AUC [6]: 0.932
IC50 [6]: > 5.12 µM
AUC [7]: 0.884
IC50 [7]: > 10.2 µM
AUC [8]: 0.564
IC50 [8]: 377 µM
AUC [9]: 0.782
IC50 [9]: 0.0286 µM

IGR-1 (melanoma, adherent)
AUC [1]: 0.985
IC50 [1]: > 10.2 µM
AUC [2]: 0.984
IC50 [2]: > 0.5 µM
AUC [3]: 0.901
IC50 [3]: > 10 µM
AUC [4]: 0.976
IC50 [4]: > 5 µM
AUC [5]: 0.979
IC50 [5]: > 2 µM
AUC [6]: 0.943
IC50 [6]: > 5.12 µM
AUC [7]: 0.988
IC50 [7]: > 10.2 µM
AUC [8]: 0.588
IC50 [8]: 421 µM
AUC [9]: 0.379
IC50 [9]: 0.00195 µM

IHH-4 (thyroid, semi-adherent)
AUC [1]: 0.947
IC50 [1]: > 10.2 µM
AUC [2]: 0.993
IC50 [2]: > 0.5 µM
AUC [3]: 0.962
IC50 [3]: > 10 µM
AUC [4]: 0.974
IC50 [4]: > 5 µM
AUC [5]: 0.955
IC50 [5]: > 2 µM
AUC [6]: 0.992
IC50 [6]: > 5.12 µM
AUC [7]: 0.984
IC50 [7]: > 10.2 µM
AUC [8]: 0.948
IC50 [8]: > 4000 µM
AUC [9]: 0.484
IC50 [9]: 0.00364 µM

IPC-298 (melanoma, adherent)
AUC [1]: 0.98
IC50 [1]: > 10.2 µM
AUC [2]: 0.987
IC50 [2]: > 0.5 µM
AUC [3]: 0.946
IC50 [3]: > 10 µM
AUC [4]: 0.973
IC50 [4]: > 5 µM
AUC [5]: 0.962
IC50 [5]: > 2 µM
AUC [6]: 0.955
IC50 [6]: > 5.12 µM
AUC [7]: 0.979
IC50 [7]: > 10.2 µM
AUC [8]: 0.495
IC50 [8]: 243 µM
AUC [9]: 0.781
IC50 [9]: 0.0261 µM

JEG-3 (urogenital system, adherent)
AUC [1]: 0.991
IC50 [1]: > 10.2 µM
AUC [2]: 0.985
IC50 [2]: > 0.5 µM
AUC [3]: 0.983
IC50 [3]: > 10 µM
AUC [4]: 0.956
IC50 [4]: > 5 µM
AUC [5]: 0.986
IC50 [5]: > 2 µM
AUC [6]: 0.991
IC50 [6]: > 5.12 µM
AUC [7]: 0.991
IC50 [7]: > 10.2 µM
AUC [8]: 0.883
IC50 [8]: 3550 µM
AUC [9]: 0.662
IC50 [9]: 0.0108 µM

JHH-1 (liver, adherent)
AUC [1]: 0.955
IC50 [1]: > 10.2 µM
AUC [2]: 0.762
IC50 [2]: 0.194 µM
AUC [3]: 0.923
IC50 [3]: > 10 µM
AUC [4]: 0.978
IC50 [4]: > 5 µM
AUC [5]: 0.9
IC50 [5]: > 2 µM
AUC [6]: 0.947
IC50 [6]: > 5.12 µM
AUC [7]: 0.892
IC50 [7]: > 10.2 µM
AUC [8]: 0.974
IC50 [8]: > 4000 µM
AUC [9]: 0.6
IC50 [9]: 0.00771 µM

By IC50 is meant the dose at which the fit gives 50% viability; a fit beyond the top or the lowest dose is shown as a bound at that dose. For AUC the same curve is integrated over the 256-fold range of doses and scaled to a fraction; values near 1 show little effect. For part of these data: The top dose, if marked as inferred, was calculated from the reported fits.
